Reference: the supplement of paper PMC3334620
The full ranking holds about 33,000 sequences; the median of “E-score (-0.5 to 0.5)” is about -0.01, and the highest 2% start at about 0.26. Some of the results follow.

Target: Ste12 (UniProt P13574)
Assay: PBM E-score (8-mer binding enrichment) (E-score (-0.5 to 0.5)); higher = stronger / more preferred TF binding; most listed sequences are background and not binding sites
Details: protein concentration: 200 nM; construct: GST-DNA-binding domain
Outline: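 E-scores (a modified Wilcoxon-Mann-Whitney statistic) were assigned by the Universal PBM Analysis Suite to every ungapped eight-base word pooled with its reverse complement. The input came from universal all-10-mer Agilent arrays made double-stranded by primer extension and probed with GST-tagged yeast transcription factors at about 100-200 nM. Fluorescent anti-GST detected bound protein, and masliner normalised the scans.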

Sequence | PBM E-score
GCATGTCC | -0.0404
CTGTTCTA | -0.0904
ACGCATAG | -0.145
CTCGGAAC | -0.0133
ATCGTGTA | -0.0948
TGTAGACA | -0.0491
CATGATAA | 0.135
CGGCTCAG | -0.0358
CGATTAAA | 0.073
GATCTGAC | -0.00638
ATTTGGTA | 0.156
CTACTCTA | 0.0458
AGCGCGGC | 0.0144
CGGGTAAA | 0.148
CCCGGGTC | -0.162
ACCGAGGG | -0.286
AGGGCTCG | -0.2
CCTCACCA | -0.00215
AAGAAATG | 0.229
AAGTGGTA | -0.0776
ATTTTTGA | 0.298
ACTTAATG | -0.00069
CTGGTCCC | -0.148
CCAACGAG | -0.0542
AACTATTA | 0.0788

Sequence | PBM E-score
ATATGCAA | -0.0415
ATATTATG | 0.303
GTCGCTAA | -0.0102
CATCCTCG | -0.0832
GATTAATC | 0.0706
CTATTGAG | 0.0902
AGCGTTCC | -0.166
AATGGTTA | 0.0312
CCACGCCG | -0.187
GATCCAGA | 0.102
CAGCGATA | -0.0269
AGATAATC | -0.0301
ACGTACTC | 0.0471
CCCTATAA | 0.00323
TCCATAAA | 0.11
CGATCCTC | -0.292
CTCTGGTC | 0.0382
AAGGCAGA | 0.0822
GTCTCCAC | -0.101
CCAAGGAG | -0.101
CGTGTGAA | 0.14
GCGATCTA | 0.0687
CAGGTTCA | -0.0316
CTGGACTA | -0.102
AGCCATAT | -0.0376

Sequence | PBM E-score
ATCGTGCA | 0.0196
ATCGAGAC | 0.0135
CCGCTCAG | 0.108
CCATCGAG | -0.0652
TATTAATA | 0.336
CCAACTAC | 0.0929
CAACACGG | 0.0245
CTTCGCGC | 0.029
CTCCTCGA | -0.101
ACGGACAC | -0.131
GACACAGA | -0.138
CAGCCTAA | -0.0731
AAGGGACT | -0.11
AAGACTAT | -0.0149
AAGATTCA | 0.138
GGTTTAAC | 0.0536
GCATCCAC | -0.0681
CTGGGAAC | -0.0225
ACTTTGGA | 0.132
AGTATACA | -0.108
ACTGTTTG | 0.188
GACTTAAA | -0.054
ACTCTCTC | -0.0599
ATGCGTTG | 0.0252
ACGGCCCG | 0.0206

Sequence | PBM E-score
AATTGTAC | 0.0447
ACAAGAAT | 0.137
CAGAGCAG | 0.078
CTTAAGCC | -0.179
ACTTCACA | -0.00253
CCCAACGC | 0.0783
CAACATAC | 0.0206
GAGTGCGA | -0.0155
GTCTGTTA | 0.0898
AATCTACC | 0.0153
GTTCATAA | 0.198
GACACCTA | -0.0929
ATATAACA | 0.23
CTATGAAA | 0.211
ACACTTCT | -0.00302
AGGGCGGC | -0.0895
ATTGATAG | -0.0262
CCATATAC | 0.0835
CAGCAGTC | -0.105
CTGTGGTA | -0.0102
AACCTTAC | 0.168
GCCAGAAA | 0.203
TACAACAA | 0.249
CGCTGAGA | -0.0821
TGCGTACA | -0.128

Sequence | PBM E-score
ACTGTCCG | -0.0128
AGCGTTAC | -0.0898
GGAAATAC | 0.0882
ATGGAGAA | -0.0326
AGTCCGAC | 0.0181
AGAACGGA | -0.202
GACAATAC | 0.176
CTGCAATC | 0.0401
TAAGATGA | 0.0722
ATCCGTAG | -0.162
CTACAGTA | 0.0907
CCTCGACA | -0.0403
CTGTCAGA | 0.0092
CATCTCTC | -0.00146
AAAACTCG | 0.125
TCACTGAA | 0.0974
CCCAGGTC | -0.207
ATTCTTAC | 0.163
CCTGCGCC | 0.0287
ATTAGAGG | -0.0381
AGTCGTTC | -0.178
AGATGGAT | -0.113
ACTCAAAA | 0.165
CACCTCGA | 0.155
CACCGTAA | 0.00184

Sequence | PBM E-score
ATATAGAC | -0.074
ACGCAACG | -0.0814
CCCCAGAC | -0.122
CTAACGCA | -0.0702
GAGTCCAC | -0.214
ATTGCGGA | 0.105
CCGCAAGG | -0.0677
AGATTATA | 0.191
ATTCTCCG | 0.0592
AAACACGA | 0.129
CACACGAG | -0.116
ATTTTGTA | 0.16
TCAGCGAA | -0.0329
CAGCTTCA | -0.0224
ACTCGAAT | -0.144
CGTAGCGA | 0.00985
CACGATTA | -0.0445
ATCCTTCG | -0.0587
GGTGGGTA | 0.0601
CGCGACCA | 0.151
GATGGCAC | -0.0893
AGTCTGAC | -0.174
AAAACTGA | -0.0102
CACAAAAG | 0.0603
CAGGGCTC | -0.234

Sequence | PBM E-score
GTGAGGTA | 0.0806
CAGCCACC | -0.0103
AGTAATAT | 0.117
CTCAGACC | 0.0442
CGAGAAAA | 0.128
CTAATCGC | 0.0206
TTATCAAA | 0.274
GCGCTACC | -0.107
AAGAAGCA | 0.0796
ATTTAATA | 0.267
AAATGGAA | 0.0869
TATGAACA | 0.17
GCGAGGCA | 0.0343
AAGACGCT | -0.14
CTATGGCA | -0.0307
TCATGCCA | 0.00418
ACTAGCCG | -0.2
CCTCTGCA | -0.207
CAGCCCTC | -0.217
AGGCGGTG | -0.143
ACACGGCC | -0.0545
CCAACCAA | 0.0513
